In publication PMC10726135 one finds binding signal (log2 normalized intensity) data, which are given here for 73 sequences.

The list shows a part of the results. At the low end of the ranking, values are background and their order means little. The protein was read in a cell extract, so binding may be indirect.

The target of the test is T1, HNF4alpha2 (COS-7 nuclear extract) (UniProt P41235).
T1 sequence: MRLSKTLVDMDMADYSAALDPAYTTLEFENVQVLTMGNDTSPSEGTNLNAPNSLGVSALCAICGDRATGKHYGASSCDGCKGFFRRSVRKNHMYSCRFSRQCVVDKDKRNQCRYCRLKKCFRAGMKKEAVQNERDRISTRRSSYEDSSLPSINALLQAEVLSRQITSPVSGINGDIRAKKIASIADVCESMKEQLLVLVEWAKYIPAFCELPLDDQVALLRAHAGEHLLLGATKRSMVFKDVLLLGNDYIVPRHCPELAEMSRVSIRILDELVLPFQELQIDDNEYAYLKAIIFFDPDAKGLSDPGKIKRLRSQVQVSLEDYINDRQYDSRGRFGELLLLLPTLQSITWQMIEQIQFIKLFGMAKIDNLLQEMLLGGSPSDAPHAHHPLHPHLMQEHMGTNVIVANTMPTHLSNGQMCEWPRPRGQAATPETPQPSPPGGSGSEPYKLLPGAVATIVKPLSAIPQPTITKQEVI
The experiment in a line: protein-binding microarray. Conditions: COS-7 nuclear extract on double-stranded Agilent 4x180k PBM; binding buffer, salt, pH and temperature not given; high values mean tight binding; double strand, one strand shown; sequences stand for … in …GCCTAGGGAGATTAGAGTATCGGTCGA
As to GTGCTAGAGAAAGGACCAGTTGAGTGCAAA, the binding signal (log2 normalized intensity) came to 0.18. The figure for GTTTACATTCCAGGGTGAAATTCAACAGAA is -1.08.

Consider CACCCCACCCCCTATCTTGTGTAATAACGA, for which the binding signal (log2 normalized intensity) was 3.15. The result for TGCAGTACTATGCAATAACCAGGGAGTGGC reads -1.15; that for TGTACCTTTGACTATGGGCATGAAGTCAAA, 0.743; that for GAAAAAACCCATCCACCCATCCAAAGGTCA, 4.97. The result for CAGTTTCTCTGTGAATCCACAGTAAAACAT reads -1.19; that for CCAGGCAGCACAATTTGTGTCTCTCACCTG, -0.903; that for GAGGGCTGCTTATCTAGGATGAGAATCCAC, 0.204. The figure for CAACCACACCAACATGGACTTTGTCACAAG is 5.88. Consider CTGATCTTAAGTTGTACCTGACTAAAACCT, for which the binding signal (log2 normalized intensity) is -0.645.

With GTGAGAAGGGGTAGTGATCCTGGTAGGGGG, the binding signal (log2 normalized intensity) is -0.96.

For TGCAGCAGCATCCAGCCCCAGGCTGAGCGT, the binding signal (log2 normalized intensity) was -1.24.

For GATACAGCATGGCCCAGGGACTCAGGCACA, the binding signal (log2 normalized intensity) is -1.04. The figure for GCCTGGGAAAATGTTGATTACGTGTTCCCA is 0.412. Regarding TCTGCAAACACCCCTCCCCCACACAGACAA, the binding signal (log2 normalized intensity) was 5.01. The figure for ATCTTGCCTGTTGTATGGTTTTGTGCTAGA is 1.44; for AACACTTTCTAAGGACACAACAGAATGTGA it is -0.05. As to TGAACACTTCTTTGTTACTTACAGACTTTC, the binding signal (log2 normalized intensity) worked out at 1.27.

As for GGAGTTTCAGAGGACTGCCCAGCTGCATCC, the binding signal (log2 normalized intensity) is -1.05. The result for GCGGGCGGACTCCGAGCCATTTTGGAGCCG reads -1.08; that for TCTTCAAGAGGCCCATCTCACACATAATGA, -0.564; that for CCCCAACAAAGCTCTGCATCCTTCCCTAAG, -1.05. GCAGACTCCCTAGAAGAGTGAACCTAGTGG: the binding signal (log2 normalized intensity) was -0.548. The result for TTTGACAAAAAATGATGAATTTTCATCCCT reads -1.14; that for TATAAAGGTCAACTGCCCTCTCAAATTACA, 1.51. The result for ACTAGCCAAACAGGTTGGGGAGGTTTGGCT reads -0.923; that for GTTTGATAGAGAAGTTTTGAAACCCTGTTC, 0.439; that for GAGTGATCCTGAAAACAAATAGAGCAGACT, -1.23. For the sequence GTGACTAAATGAGAAGAAATGATGGGTGCC, the binding signal (log2 normalized intensity) is -0.768. The figure for CTTGTGATTACACTGGGCTCACCTGAATGA is -1.08; for GAAACTAAAGTCTGTTTGATTCCATGCTGA it is -1.11; for ACATAACAGGTTTGTAACTTCTTGGCCTGC it is 0.492. On to GACCCAGGAGCCTTCCGGAGGCTCTGCTGA, for which the binding signal (log2 normalized intensity) was -1.12.

Consider CCTCCCCTAGACTTACTATTATGCCTTGAC, for which the binding signal (log2 normalized intensity) was found to be 0.618. The result for GCTGCAGGCATGAGAGGTGCTGCATGGGCT reads -0.94; that for TCCTTAGATAAAAAGCTTTTCTTCCCCCCT, 4.12; that for GGAGGGAGGAGCACAGAAGGAGAGAGAGGG, -1.05. The result for ATTTGCGATAATAGAGATTGCTTAATGCAA reads -0.868; that for ACATTGCATTCCACCCTGGCAGAGGAAAAA, -1.09. For the sequence TAATTGCCCTTTGCCCTTTGCCCAACCCTC, the binding signal (log2 normalized intensity) worked out at 7.02. On to TTCCCCTTTGACTTAGGATCAGTAGCATTA, for which the binding signal (log2 normalized intensity) was 0.918. AGAACTGGGCGAGCCCTCTGATCTGACCCC: the binding signal (log2 normalized intensity) was found to be 5.8.

For the sequence GCTTGAAAAGAAGAAAAAACAGGTGTTCTT, the binding signal (log2 normalized intensity) stood at 0.477. For TTGTCCCTTTCAAGGGCTTACAACTCTAAG, the binding signal (log2 normalized intensity) is -1.05. The figure for GGGTGTCTGCTGTTCTTGCCTGATAGCATC is 1.03. For the sequence CTGGCTGAAGACCTGTACAGGGACTGTGTC, the binding signal (log2 normalized intensity) stood at 0.956. Turning to CGTAATGTGTCCCCACATCTGTGAAAACGA, the binding signal (log2 normalized intensity) worked out at 1.69. The figure for AATAAGGATTATCACTGAATCGAGGCTATT is -1.08; for TGCCAAGGAGCCTCTGCAACCTTTGCTCTC it is 5.9; for CACAGCACAAGATAAGATAGGAATTTGAGT it is -1.1. The result for CCACAGAGTTGCTGTGACAGACAGGTGAGA reads -0.892; that for TATTCCTTGTCCTTGACCCTTCCTCCCATT, 3.61; that for TCAGGGTAAATCCCGTCCCTGCCAAAGGTC, 4.8. The figure for GGTGATTTCAGACTATTTTATTTTCCCCCT is 4.06; for AGATTAGATATATCTGTACTCAAACACTGC it is -0.305; for TTTGAAGCATGGAGAAAATTCTGGACCTTC it is 2.31.

In the case of TTGGTGGGCTTTTGTCACATTCCAGACTTT, the binding signal (log2 normalized intensity) turned out to be 2.73. The figure for CCCCTGCCCCCAGGTAGAGAGCAATCATGC is 2.4; for TTGGTATTACATTACAACCAAAGGAATTTA it is -1.11; for TGCTCCCTCCTTCAGTGCTCTGTTGAGTCA it is 0.377. Turning to TCTGTCCCATGGTGTACAAGGAGTCTCCAC, the binding signal (log2 normalized intensity) was determined as 0.797. The figure for GGTTCAGAGACCTGGCGGATAGATAGAATC is -1.1. Regarding ACGCCGTCTCAAAAAAAAAAAAAAGGCAGT, the binding signal (log2 normalized intensity) was -1.14.

Take AGTCCAGAAATAGCATCACGAAAGGCAACA: the binding signal (log2 normalized intensity) was -0.686. TATGTTTGTGCTGGTTACTAAACACTTACA: the binding signal (log2 normalized intensity) is -1.12. For CGGCGGCCCAGTCAAACCCCGCGCTCCAGG, the binding signal (log2 normalized intensity) is -1.04. Turning to ACAAATGTCAGACAAACAGACTTCACACTA, the binding signal (log2 normalized intensity) is -0.99. The result for AGATGGTCTCAGGTGGAGATAAGGAATTTG reads -0.171. Take ATACTTAGGATTTTTGTGCCTCTTTGGTGA: the binding signal (log2 normalized intensity) came to 1.13. The result for GTTTCCCTCTCTCTCTCTCTCTCACACACA reads 1.31; that for GGCCCCAGTGCACGTGCATGAGGCCCCTTG, 2.18; that for TCTATCAGTACAAATAAACCTTTGACCAAT, 4.32.
